# According to article PMC12040169 (PLOS Biology, 2025):
# This is one part of the list.
# Tested on: T1, C. trachomatis L2/434/Bu expressing GFP (CTL2-GFP)
# T1 construct: L2/434/Bu GFP intracellular growth in HeLa cells
# Design: species or system HeLa; C. trachomatis total inclusion area by high-content imaging, normalised to DMSO
# Details: total inclusion area; 28.5 h, 10 µM; inhibitor
# Outline: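 High-content imaging followed the bulk GFP/resorufin measurement: fixed, Hoechst-stained cells were scored for GFP inclusions and host nuclei per well. Total inclusion area and count served as growth proxies, nuclei number as the viability proxy. MIC calculation matched the bulk assay.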
row,SMILES,% of control remaining
1,Cc1cc(C)c2c(c1)COC1(CCN(Cc3ccccc3)CC1)O2 [CBK061572],93.3733
2,CCOc1cc(-c2cc(C(=O)O)c3ccccc3n2)ccc1O [CBK266848],79.1141
3,CCC1(CCc2ccccc2)CC(O)=CC(=O)O1 (centres unmarked) [CBK012790],99.4746
4,O=C1NC2(CCN(C(=O)c3ccc(C(F)(F)F)c(F)c3)CC2)Oc2ccc(-c3ccccc3)cc21 [CBK115841],104.009
5,Cc1cccc(C)c1NC(=O)Nc1ccc(F)cc1F [CBK300526],68.4019
6,CCc1cccc(C)c1NC(=O)CSc1nnc(-c2cccnc2)n1C [CBK267582],92.7411
7,Cc1cc(NC(=O)CN(C)Cc2ccc(Br)cc2)on1 [CBK305599],57.7662
8,COc1ccccc1N1CCN(C(=O)NCCc2c[nH]cn2)CC1 [CBK155369],119.034
9,CCc1c(C)nc2ccccc2c1S(=O)(=O)CCC(=O)OC [CBK155468T],100.088
10,O=C(N[C@H]1C[C@H]2C(=O)NC[C@@H](CCC(=O)N3CCOCC3)N2C1)c1cccs1 [CBK289009],81.8961
11,CNCCc1nc(-c2cccs2)c2ccccn12 [CBK035905],93.5863
12,OC1(c2ccc(F)cc2)CCCC2CN(Cc3cccnc3)CC21 (centres unmarked) [CBK284377],75.6123
13,O=C(C1CC1)N1C2CCC1CC(O)(Cn1ccc3ccncc31)C2 (centres unmarked) [CBK284652],106.673
14,Cc1cc(=O)cc(C(=O)NC2CCN(c3ncccc3C#N)CC2)o1 [CBK307240],91.5547
15,CC1CCCCN1C(=O)CN1C(=O)[C@H]2CCCN2C(=O)c2ccccc21 (some centres unmarked) [CBK286320],83.8322
16,Cc1c(C(=O)Nc2ccc(C(=O)O)cc2)nnn1-c1ccc(Cl)cc1 [CBK300532],42.7965
17,Cc1cc(C)n(CC2CCCN2CCc2ccccn2)n1 (centres unmarked) [CBK304846],44.8817
18,O=C(O)c1cccc(N2C(=O)c3cccc4c(C(=O)c5ccccc5)ccc(c34)C2=O)c1 [CBK299809],81.7615
19,Cn1c2ccccc2c2ncn(CCCO)c(=O)c21 [CBK287951],45.5653
20,O=C(OCc1cc([N+](=O)[O-])cc2c1OCOC2)c1ccco1 [CBK297537],100.09
21,COc1ccc(CNC(=O)NC(=O)C2CCN(C(C)=O)CC2)c(OC)c1 [CBK034839],98.5008
22,COc1ccc(CCNC(=O)N2CCN(CCc3ccccc3)CC2)cc1OC [CBK158915],102.081
23,O=C1Nc2ccc(-c3cccc(C(F)(F)F)c3)cc2C(=O)N2C[C@H](O)C[C@@H]12 [CBK289273],114.596
24,c1ccc(Oc2cccc(CN3CCC(N4CCN(c5ccccc5)CC4)CC3)c2)cc1 [CBK264662G],84.8718
25,Cc1nc2n(c1C)CCN(c1ccc3nnc(C(F)(F)F)n3n1)C2 [CBK305815],77.6037

row,SMILES,% of control remaining
1,COc1cc(/C=N/NC(=O)c2cccnc2)cc([N+](=O)[O-])c1O [CBK262233],88.1485
2,OCc1cc(CC2(NCc3cccc4c3OCO4)COC2)no1 [CBK289314],97.5696
3,COc1ccc(C(=O)N2CCC3(CCN(C(=O)/C=C/c4ccc5c(c4)OCO5)C3)C2)cc1OC (centres unmarked) [CBK131775],83.0385
4,O=C(c1ccno1)N1C[C@@H]2OCC(=O)N(CC3CC3)[C@@H]2C1 [CBK289680],111.215
5,Nc1ccc(-c2cn3ccnc3c(Nc3ccc(Cl)cc3)n2)cc1 [CBK066453],141.882
6,O=C(O)c1ccc(N2C(=O)CC(N3CCN(Cc4ccc5c(c4)OCO5)CC3)C2=O)cc1 (centres unmarked) [CBK074573],89.3509
7,Cc1nn(C)cc1C(C)NC(=O)c1ccc(CN(C)C)o1 (centres unmarked) [CBK282083],81.9941
8,CN1CCCC(NC(=O)C2CCN(Cc3ccc(F)cc3)CC2)C1 (centres unmarked) [CBK282516],100.875
9,O=C(CCC1CCCC1)n1ccn(C(c2ccccc2)c2ccccc2)c1=O [CBK106619],112.11
10,O=C(OCCc1ccncc1)N1CCC(F)(F)CC1 [CBK200158],81.9493
11,C=Cn1cc(CN2CCCC(O)(c3ccc(F)cc3)CC2)c(C)n1 (centres unmarked) [CBK285398],88.8888
12,COc1ccc2cc(C(=O)N3Cc4cnn(CCO)c4C3)n(C)c2c1 [CBK306707],82.4885
13,C(#Cc1cccc(-c2nc3ccccc3nc2-c2cccc(C#Cc3ccc(Sc4ccccc4)cc3)c2)c1)c1ccc(Sc2ccccc2)cc1 [CBK261158],93.2332
14,CCCNC(=O)NC1CC(C)(C)Cc2nc(N3CCOCC3)ncc21 (centres unmarked) [CBK307232],76.0861
15,Cc1cccc(C)c1NC(=O)CN1CCC(Oc2cncc(OCC3COc4ccccc4O3)n2)C1 (centres unmarked) [CBK084373],90.3077
16,Cc1ccc(C(=O)C(OC(=O)COc2ccccc2C)c2ccccc2)cc1C (centres unmarked) [CBK265512],130.392
17,Cc1ccc(NC(=O)c2cnc(SCc3ccccn3)n(C)c2=O)cc1 [CBK287673],97.4862
18,Cc1nn(Cc2c(F)cccc2Cl)c(C)c1NC(=S)Nc1ccc(S(N)(=O)=O)cc1 [CBK267121],91.6417
19,O=C(NNS(=O)(=O)c1ccc([N+](=O)[O-])cc1)Nc1cccc(C(F)(F)F)c1 [CBK266871],103.917
20,Cc1nnc(SCC(=O)N2CCN(Cc3ccccc3)CC2)s1 [CBK267196],135.632
21,CCOC(=O)CN1CCC(Oc2cncc(OCC3COc4ccccc4O3)n2)C1 (centres unmarked) [CBK084375],80.9017
22,CCC(CC)C(=O)N(C)c1c(C)nc2ccc(C(=O)NCc3ccc(OC)cc3)cn12 [CBK146501],115.069
23,Cc1cc(-c2nccnc2NCc2ccccn2)cc(C)c1O [CBK036921],116.628
24,CS(=O)(=O)CCNC(=O)c1cnc(-c2ccc(F)cc2)c(-c2ccco2)c1 [CBK037505],126.902
25,COc1ccc(C2N(CCC(=O)O)CCOC23CCN(C(=O)c2ccc4ccccc4c2)CC3)cc1 (centres unmarked) [CBK115960],104.216
